This test deals with NCI-H1944. Nature of the test: normalised cell viability (NPI; 0 = phenylarsine oxide control, 1 = DMSO control) (fraction of DMSO control); NCI-H1944 is a non-small cell lung cancer line; higher = more viable cells (less compound toxicity). The settings on record: 6 days.
The mark [1] stands for this setting: glucocorticoid arm: hydrocortisone 2.75 uM co-treatment, compound 1 µM.
Where [2] appears, read: glucocorticoid arm: hydrocortisone 2.75 uM co-treatment, compound 5 µM.
Where [3] appears, read: glucocorticoid arm: hydrocortisone 2.75 uM pre-treated 2 days and continued, compound 1 µM.
Setting [4] is: glucocorticoid arm: hydrocortisone 2.75 uM pre-treated 2 days and continued, compound 5 µM.
Where [5] appears, read: glucocorticoid arm: vehicle, compound 1 µM.
Where [6] appears, read: glucocorticoid arm: vehicle, compound 5 µM.

Where a name gives a salt, the structure may show the parent alone. ± gives the standard deviation of the averaged measurements. Whole data set: some 1,900 compounds, median “normalised cell viability (NPI; 0 = phenylarsine oxide control, 1 = DMSO control)” near 1, cut for the lowest 2% near 0.039. The list shows a part of the results.
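Also: CTB read-out in 384-well plates, mean of triplicate wells, normalised per plate against 1 µM phenylarsine oxide and 0.1% DMSO, compounds added 24 h after seeding.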

`CC(C=CC(=O)NO)=CC(C)C(=O)c1ccc(N(C)C)cc1` (centres undefined) [Trichostatin A (TSA)]: the normalised cell viability was 0.0292 ± 0.0042 under setting [1]; -0.000733 ± 0.0048 under setting [2]; 0.937 ± 0.098 under setting [3]; 0.00269 ± 0.00055 under setting [4]; 0.00709 ± 0.0011 under setting [5]; 8.2e-05 ± 0.00089 under setting [6].
As for `O=C(O)[C@@H]1C[C@H](C(=O)O)N1` [cis-Azetidine-2,4-dicarboxylic acid], the normalised cell viability is, setting by setting: under setting [1], 0.992 ± 0.0044; under setting [2], 0.97 ± 0.015; under setting [3], 0.997 ± 0.012; under setting [4], 1; under setting [5], 0.9863 ± 0.0029; under setting [6], 0.976 ± 0.011.
On to `CCN(CC)CC(=O)Nc1c(C)cccc1C` [Lidocaine hydrochloride], for which the normalised cell viability came out at 0.985 ± 0.01 under setting [1]; 0.9687 ± 0.0071 under setting [2]; 0.995 ± 0.013 under setting [3]; 0.837 ± 0.23 under setting [4]; 0.9787 ± 0.0031 under setting [5]; 0.987 ± 0.02 under setting [6].
Regarding `CCN(CC)CC(=O)Nc1c(C)cccc1C` [Lidocaine], the normalised cell viability was determined as 1 ± 0.019 under setting [1]; 1.03 ± 0.017 under setting [2]; 1.017 ± 0.0058 under setting [3]; 1.017 ± 0.0058 under setting [4]; 0.995 ± 0.005 under setting [5]; 0.987 ± 0.019 under setting [6].
On to `NS(=O)(=O)c1cc2c(cc1Cl)NC(C1CC3C=CC1C3)NS2(=O)=O` (centres undefined) [Cyclothiazide], for which the normalised cell viability under setting [1] was found to be 1.01 ± 0.01; the normalised cell viability under setting [2] was 0.981 ± 0.0089; the normalised cell viability under setting [3] is 1.02 ± 0.023; the normalised cell viability under setting [4] was 0.992 ± 0.029; the normalised cell viability under setting [5] amounted to 0.998 ± 0.011; the normalised cell viability under setting [6] is 0.995 ± 0.0017.
Consider `S=C(S)N1CCCC1` [Ammonium pyrrolidinedithiocarbamate], for which the normalised cell viability is, setting by setting: under setting [1], 1 ± 0.015; under setting [2], 0.994 ± 0.024; under setting [3], 1.01 ± 0.018; under setting [4], 1.004 ± 0.01; under setting [5], 1.002 ± 0.0076; under setting [6], 0.416 ± 0.095.
As for `CSC(=N)NCCC[C@H](N)C(=O)O` [S-Methyl-L-thiocitrulline acetate], the normalised cell viability reads like this: under setting [1], 1.003 ± 0.0058; under setting [2], 0.984 ± 0.028; under setting [3], 1.01 ± 0.01; under setting [4], 0.989 ± 0.018; under setting [5], 0.9847 ± 0.0051; under setting [6], 0.994 ± 0.014.
Consider `COc1cccc2c1C(=O)c1c(O)c3c(c(O)c1C2=O)C[C@@](O)(C(C)=O)C[C@@H]3O[C@H]1C[C@H](N)[C@H](O)[C@H](C)O1` [Daunorubicin hydrochloride; Daunorubicin HCl], for which the normalised cell viability is, setting by setting: under setting [1], 0.0398 ± 0.0066; under setting [2], 1.05 ± 0.011; under setting [3], 0.587 ± 0.027; under setting [4], 1.013 ± 0.0058; under setting [5], 0.0031 ± 0.0017; under setting [6], 1.007 ± 0.0058.
Turning to `CNC(=O)c1cc(Oc2ccc(NC(=O)Nc3ccc(Cl)c(C(F)(F)F)c3)cc2)ccn1` [Sorafenib tosylate; Sorafenib; Sorafenib Tosylate], the normalised cell viability was found to be 1 ± 0.018 under setting [1]; 1.08 ± 0.029 under setting [2]; 1.01 under setting [3]; 1.03 ± 0.011 under setting [4]; 1.003 ± 0.0058 under setting [5]; 1.01 under setting [6].
On to `CNC(=O)c1cc(Oc2ccc(NC(=O)Nc3ccc(Cl)c(C(F)(F)F)c3)cc2)ccn1` [Sorafenib (Nexavar)], for which the normalised cell viability runs as follows: under setting [1], 0.993 ± 0.004; under setting [2], 1.08 ± 0.011; under setting [3], 0.995 ± 0.019; under setting [4], 1.07 ± 0.025; under setting [5], 0.9967 ± 0.0031; under setting [6], 1.01 ± 0.015.
For `CNC(=O)c1cc(Oc2ccc(NC(=O)Nc3ccc(Cl)c(C(F)(F)F)c3)cc2)ccn1` [Sorafenib], the normalised cell viability runs as follows: under setting [1], 0.9767 ± 0.0085; under setting [2], 0.522 ± 0.011; under setting [3], 0.987 ± 0.012; under setting [4], 0.695 ± 0.036; under setting [5], 1.002 ± 0.0068; under setting [6], 0.787 ± 0.018.
On to `O=C(Nc1cccc(C(=O)Nc2ccc(S(=O)(=O)O)c3cc(S(=O)(=O)O)cc(S(=O)(=O)O)c23)c1)Nc1cccc(C(=O)Nc2ccc(S(=O)(=O)O)c3cc(S(=O)(=O)O)cc(S(=O)(=O)O)c23)c1`, for which the normalised cell viability worked out at 1.007 ± 0.0058 under setting [1]; 1.02 ± 0.021 under setting [2]; 1.003 ± 0.0063 under setting [3]; 1.07 ± 0.084 under setting [4]; 1.01 under setting [5]; 1.01 ± 0.017 under setting [6].
For the molecule `Ic1ccc(N2CCN(Cc3c[nH]c4ncccc34)CC2)cc1` [L-750,667 trihydrochloride], the normalised cell viability runs as follows: under setting [1], 0.969 ± 0.003; under setting [2], 0.883 ± 0.014; under setting [3], 0.99 ± 0.0044; under setting [4], 0.999 ± 0.087; under setting [5], 0.988 ± 0.011; under setting [6], 0.998 ± 0.019.
Turning to `Nc1ncnc2c1nc(Br)n2C1OC2COP(=O)(O)O[C@@H]2C1O` (some centres undefined) [8-Bromo-cAMP sodium], the normalised cell viability amounted to 0.9863 ± 0.004 under setting [1]; 0.901 ± 0.017 under setting [2]; 0.983 ± 0.001 under setting [3]; 0.96 ± 0.016 under setting [4]; 0.9617 ± 0.0067 under setting [5]; 0.9647 ± 0.0093 under setting [6].
Take `Cc1ncc(-c2ccnc(Nc3ccc(S(C)(=O)=O)cc3)n2)n1C(C)C`: the normalised cell viability worked out at 0.584 ± 0.057 under setting [1]; 0.062 ± 0.0037 under setting [2]; 0.705 ± 0.061 under setting [3]; 0.319 ± 0.083 under setting [4]; 0.191 ± 0.045 under setting [5]; 0.0177 ± 0.0014 under setting [6].
Consider `CC(C)NC[C@@H](O)COc1ccc(CC(N)=O)cc1` [R(+)-Atenolol], for which the normalised cell viability under setting [1] was 0.998 ± 0.014; the normalised cell viability under setting [2] came to 0.994 ± 0.014; the normalised cell viability under setting [3] turned out to be 0.998 ± 0.011; the normalised cell viability under setting [4] is 1 ± 0.023; the normalised cell viability under setting [5] came out at 0.995 ± 0.0046; the normalised cell viability under setting [6] turned out to be 0.998 ± 0.01.
Turning to `OC[C@H]1O[C@@H](n2cnc3c(N[C@H]4CCC[C@@H]4O)ncnc32)[C@H](O)[C@@H]1O`, the normalised cell viability was 1.017 ± 0.0058 under setting [1]; 1.01 ± 0.027 under setting [2]; 1.01 ± 0.01 under setting [3]; 1.01 under setting [4]; 0.993 ± 0.015 under setting [5]; 0.9927 ± 0.0095 under setting [6].
As to `COC1(C2=NCCN2)COc2ccccc2O1` (centres undefined), the normalised cell viability is, setting by setting: under setting [1], 0.9913 ± 0.0035; under setting [2], 1 ± 0.018; under setting [3], 1.01 ± 0.029; under setting [4], 0.994 ± 0.017; under setting [5], 0.9827 ± 0.0021; under setting [6], 0.9817 ± 0.0067.
For `N[C@@H](Cc1c[nH]c2ccccc12)C(=O)O` [L-Tryptophan], the normalised cell viability by setting is: under setting [1], 1.01; under setting [2], 1.027 ± 0.0058; under setting [3], 1.03 ± 0.032; under setting [4], 1.033 ± 0.0058; under setting [5], 0.999 ± 0.001; under setting [6], 1.003 ± 0.0058.
As to `Nc1cc(=O)[nH]c(N)n1` [2,4-Diamino-6-hydroxypyrimidine], the normalised cell viability stood at 1.007 ± 0.0058 under setting [1]; 1.01 ± 0.029 under setting [2]; 0.9987 ± 0.0023 under setting [3]; 0.994 ± 0.014 under setting [4]; 0.988 ± 0.0017 under setting [5]; 0.992 ± 0.005 under setting [6].
For the molecule `O=C(/C=C/c1ccc(O)cc1)c1ccc(O)cc1O` [Isoliquiritigenin], the normalised cell viability is, setting by setting: under setting [1], 0.997 ± 0.0044; under setting [2], 1.06 ± 0.05; under setting [3], 1 ± 0.01; under setting [4], 1.06 ± 0.09; under setting [5], 1.01; under setting [6], 1.017 ± 0.0058.
As for `CS(=O)(=O)OCCCCOS(C)(=O)=O` [Busulfan], the normalised cell viability is 1.02 ± 0.02 under setting [1]; 1.01 ± 0.026 under setting [2]; 1.013 ± 0.0058 under setting [3]; 1.033 ± 0.0058 under setting [4]; 1.003 ± 0.0064 under setting [5]; 0.989 ± 0.014 under setting [6].
Consider `CC[C@@H]1C(=O)OC[C@@H]1Cc1cncn1C` [(+)-Pilocarpine hydrochloride], for which the normalised cell viability turned out to be 1.01 ± 0.013 under setting [1]; 1.02 ± 0.018 under setting [2]; 1.01 ± 0.011 under setting [3]; 0.862 ± 0.28 under setting [4]; 1.003 ± 0.0058 under setting [5]; 1.02 ± 0.021 under setting [6].
Regarding `CC[C@@H]1C(=O)OC[C@@H]1Cc1cncn1C` [Pilocarpine nitrate], the normalised cell viability runs as follows: under setting [1], 1.013 ± 0.0058; under setting [2], 1.01 ± 0.025; under setting [3], 0.985 ± 0.01; under setting [4], 1.01 ± 0.044; under setting [5], 1; under setting [6], 1.02 ± 0.015.

The values above are taken from the supplement of paper PMC8285479.
